This is one part of the list.
These molecules were tested on HSkMC (human skeletal muscle cells) (assay: cytotoxicity call (relative viability < 0.9)). Conditions: 10 µM.
`COc1ccc([Si](C)(C)[C@H]2[C@H](CC(=O)N3CCC[C@H]3CO)O[C@@]3(C(=O)N(Cc4cccc(N5C(=O)COc6ccccc65)c4)c4ccccc43)[C@@H]2C)cc1` was tested, and the cytotoxicity call was “inactive”.
`CCOC(=O)COc1ccc(-c2nn[nH]n2)cc1` was tested, and the cytotoxicity call was “inactive”.
For `COc1ccc(C2=N[C@@H](c3ccc(Cl)cc3)[C@@H](c3ccc(Cl)cc3)N2C(=O)N2CCNC(=O)C2)c(OC(C)C)c1`, the cytotoxicity call was “inactive”.
With `CNC[C@@H]1Oc2ccc(NC(=O)CCN3CCOCC3)cc2CC(=O)N([C@@H](C)CO)C[C@@H]1C` the cytotoxicity call was “inactive”.
For `C[C@@H]1CN([C@H](C)CO)C(=O)c2cc(NC(=O)Nc3cccc4ccccc34)ccc2O[C@@H](C)CCCCO[C@@H]1CN(C)S(=O)(=O)c1ccc(F)cc1`, the cytotoxicity call was “inactive”.
For `N[C@H]1CCCN(c2ncccn2)C1`, the cytotoxicity call was “inactive”.
With `CC(C)(CO)c1cc2cc(NC(=O)C3(c4ccc5c(c4)OC(F)(F)O5)CC3)c(F)cc2n1C[C@@H](O)CO` the cytotoxicity call was “inactive”.
`C[C@@H]1CN([C@@H](C)CO)C(=O)c2cc(NC(=O)CCC(F)(F)F)ccc2O[C@@H](C)CCCCO[C@H]1CN(C)CC1CCCCC1` was tested, and the cytotoxicity call was “inactive”.
For `C[C@@H]1CCCCO[C@H](CN(C)C(=O)Nc2ccc(C(F)(F)F)cc2)[C@@H](C)CN([C@H](C)CO)C(=O)c2cc(NC(=O)Nc3ccc4c(c3)OCO4)ccc2O1`, the cytotoxicity call was “inactive”.
For `CC(C)N1C[C@H](CNCc2ccc(Oc3ccccc3)cc2)Oc2c(NC(=O)c3ccncc3)cccc2C1=O`, the cytotoxicity call was “inactive”.
For `COc1ccc(NC(=O)N(C)C[C@@H]2OCCCC[C@@H](C)Oc3ccc(NC(=O)CCCCCC(=O)Nc4ccccc4N)cc3C(=O)N([C@H](C)CO)C[C@@H]2C)cc1`, the cytotoxicity call was “inactive”.
With `C[C@@H]1CCCCO[C@H](CN(C)C(=O)Nc2ccccc2)[C@H](C)CN([C@@H](C)CO)C(=O)c2cc(NC(=O)Nc3ccc(C(F)(F)F)cc3)ccc2O1` the cytotoxicity call was “inactive”.
In the case of `CC(C)=CCOc1cc(C)cc2oc(=O)cc(-c3ccccc3)c12`, the cytotoxicity call is reported as “inactive”.
In the case of `C[C@@H]1CN([C@@H](C)CO)C(=O)c2cc(NC(=O)Nc3ccc(C(F)(F)F)cc3)ccc2O[C@H]1CN(C)Cc1ccc2c(c1)OCO2`, the cytotoxicity call is reported as “active”.
For `C[C@@H]1CN([C@H](C)CO)C(=O)Cc2cc(NC(=O)C3CCCCC3)ccc2O[C@H]1CN(C)C(=O)Nc1ccc(C(F)(F)F)cc1`, the cytotoxicity call was “inactive”.
For `C=CC(=O)N1C[C@@H]2CC[C@H](O)[C@@H]2C1`, the cytotoxicity call was “inactive”.
With `C[C@H]1CCCCO[C@H](CN(C)CC2CCCCC2)[C@@H](C)CN([C@@H](C)CO)C(=O)c2cc(NC(=O)C3CCCCC3)ccc2O1` the cytotoxicity call was “inactive”.
`C[C@@H]1CN([C@@H](C)CO)C(=O)c2cc(NC(=O)c3ccccc3)ccc2O[C@@H](C)CCCCO[C@H]1CN(C)C(=O)Nc1cccc2ccccc12` was tested, and the cytotoxicity call was “inactive”.
`C[C@@H]1CCCCO[C@@H](CN(C)Cc2ccc(Cl)c(Cl)c2)[C@@H](C)CN([C@@H](C)CO)C(=O)c2cc(NC(=O)Nc3ccc4c(c3)OCO4)ccc2O1` was tested, and the cytotoxicity call was “active”.
In the case of `CC(=O)N[C@@H](CC(=O)O)C(=O)N[C@@H](CCC(=O)O)C(=O)O`, the cytotoxicity call is reported as “inactive”.
With `Cc1ccc(S(=O)(=O)Nc2ccc3c(c2)C(=O)N([C@@H](C)CO)C[C@H](C)[C@H](CN(C)S(=O)(=O)c2ccc(F)cc2)OCCCC[C@@H](C)O3)cc1` the cytotoxicity call was “inactive”.
`Cc1ccc(S(=O)(=O)N(C)C[C@H]2Oc3c(NC(=O)c4ccncc4)cccc3C(=O)N([C@H](C)CO)C[C@H]2C)cc1` was tested, and the cytotoxicity call was “inactive”.
In the case of `C[C@H](CO)N1C[C@H](C)[C@H](CN(C)S(=O)(=O)c2ccccc2)OCCCC[C@H](C)Oc2ccc(NC(=O)Nc3ccccc3)cc2C1=O`, the cytotoxicity call is reported as “inactive”.
With `Cc1cc(O)n(C[C@H]2CCCO2)c(=O)c1C#N` the cytotoxicity call was “inactive”.
For `CC(C)NC(=O)Nc1cccc2c1O[C@@H](CN(C)S(=O)(=O)c1ccc(Cl)cc1)[C@@H](C)CN([C@@H](C)CO)C2=O`, the cytotoxicity call was “inactive”.
For `Cc1noc(C)c1NC(=O)N(C)C[C@@H]1Oc2ccc(NC(=O)C3CC3)cc2C(=O)N([C@@H](C)CO)C[C@H]1C`, the cytotoxicity call was “inactive”.
In the case of `CCS(=O)(=O)N1CCn2cc(Cn3cncn3)nc2C1`, the cytotoxicity call is reported as “inactive”.
In the case of `COc1ccc(S(=O)(=O)Nc2ccc3c(c2)[C@H]2C[C@@H](CC(=O)NCC4CC4)O[C@H](CO)[C@H]2O3)cc1`, the cytotoxicity call is reported as “inactive”.
In the case of `C[C@@H]1CCCCO[C@@H](CN(C)Cc2ccncc2)[C@@H](C)CN([C@H](C)CO)C(=O)c2cc(NC(=O)Nc3ccc4c(c3)OCO4)ccc2O1`, the cytotoxicity call is reported as “inactive”.
